The supplement of paper PMC12217912
The other results are listed elsewhere or left out. The full chains were built here from the parent and the listed change. Values near 0.05 are background.

B1: TEV protease; numbered along this chain (parent)
chain: MGESLFKGPRDYNPISSSICHLTNESDGHTTSLYGIGFGPFIITNKHLFRRNNGTLVVQSLHGVFKVKDTTTLQQHLVDGRDMIIIRMPKDFPPFPQKLKFREPQREERICLVTTNFQTKSMSSMVSDTSCTFPSGDGIFWKHWIQTKDGQCGSPLVSTRDGFIVGIHSASNFTNTNNYFTSVPKNFMELLTNQEAQQWVSGWRLNADSVLWGGHKVFMVKPEEPFQPVKEATQL

Variants of: B1
Test: raw area under fraction-flipped curve 0-4 h after induction (AUC4h, not background-subtracted), DNA-recorder readout of cleavage of the substrate (dimensionless); higher = more cleavage of the substrate by the protease variant
Details: temperature: 34 °C; time window: 0-4 h after rhamnose induction
Procedure: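 In vivo DNA recorder in E. coli TOP10(DE3) ΔrhaA at 34 °C. Each TEVp single-site mutant (parent TEVp 0) is paired with a single-site variant of the 7-mer TEVs (canonical ENLYFQ|S). The substrate sits between flexible linkers in a Bxb1-sfGFP-TEVs-SsrA fusion, so cleavage stabilises Bxb1 and speeds flipping of a recombination array, read by NGS. The value is the raw area under the fraction-flipped curve over 0-4 h after rhamnose induction (AUC4h), with ≥20 reads per time point. It is not background-subtracted; inactive controls average about 0.047.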
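Also: Bxb1 expression induced with 0.2% (w/v) L-rhamnose at OD600 near 0.5, cultures sampled hourly, flipped fraction per protease–substrate barcode pair counted by paired-end Illumina sequencing.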

Variant	area with substrate ENLYFQA	area with substrate ENLYFQC	area with substrate ENLYFQD	area with substrate ENLYFQF	area with substrate ENLYFQI	area with substrate ENLYFQK	area with substrate ENLYFQL	area with substrate ENLYFQN	area with substrate ENLYFQQ	area with substrate ENLYFQS	area with substrate ENLYFQT	area with substrate ENLYFQV	area with substrate ENLYFQG	area with substrate ENLYFQH	area with substrate ENLYFQM	area with substrate ENLYFQR	area with substrate ENLYFQW	area with substrate ENLYFQY	area with substrate ENLYFQP	area with substrate ENLYFQE
MGESLFKGPRDYNPISSSICHLTNESDGHTTSLYGIGFGPFIITNKHLFRRNNGTLVVQSLHGVFKVKDTTTLQQHLVDGRDMIIIRMPKDFPPFPQKLKFREPQREERICLVTTNFQTKSMSSMVSETSCTFPSGDGIFWKHWIQTKDGQCGSPLVSTRDGFIVGIHSASNFTNTNNYFTSVPKNFMELLTNQEAQQWVSGWRLNADSVLWGGHKVFMVKPEEPFQPVKEATQL [D128E]	0.0938	0.12	0.0684	0.0784	0.0677	0.0502	0.0605	0.0762	0.0867	0.109	0.0666	0.0659	–	–	–	–	–	–	–	–
MGESLFKGPRDYNPISSSICHLTNESDGHTTSLYGIGFGPFIITNKHLFRRNNGTLVVQSLHGVFKVKDTTTLQQHLVDGRDMIIIRMPKDFPPFPQKLKFREPQREERICLVTTNFQTKSMSSMVSFTSCTFPSGDGIFWKHWIQTKDGQCGSPLVSTRDGFIVGIHSASNFTNTNNYFTSVPKNFMELLTNQEAQQWVSGWRLNADSVLWGGHKVFMVKPEEPFQPVKEATQL [D128F]	0.146	–	–	–	0.0371	0.0879	0.0594	0.109	–	0.157	0.0816	–	0.11	0.136	0.114	0.0622	0.0825	0.0688	–	–
MGESLFKGPRDYNPISSSICHLTNESDGHTTSLYGIGFGPFIITNKHLFRRNNGTLVVQSLHGVFKVKDTTTLQQHLVDGRDMIIIRMPKDFPPFPQKLKFREPQREERICLVTTNFQTKSMSSMVSLTSCTFPSGDGIFWKHWIQTKDGQCGSPLVSTRDGFIVGIHSASNFTNTNNYFTSVPKNFMELLTNQEAQQWVSGWRLNADSVLWGGHKVFMVKPEEPFQPVKEATQL [D128L]	0.107	0.138	0.0725	–	–	0.0557	0.0703	0.108	0.0761	0.148	0.0586	–	0.159	0.105	0.103	0.0698	0.0661	0.0606	0.0664	–
MGESLFKGPRDYNPISSSICHLTNESDGHTTSLYGIGFGPFIITNKHLFRRNNGTLVVQSLHGVFKVKDTTTLQQHLVDGRDMIIIRMPKDFPPFPQKLKFREPQREERICLVTTNFQTKSMSSMVSMTSCTFPSGDGIFWKHWIQTKDGQCGSPLVSTRDGFIVGIHSASNFTNTNNYFTSVPKNFMELLTNQEAQQWVSGWRLNADSVLWGGHKVFMVKPEEPFQPVKEATQL [D128M]	0.116	0.184	0.0964	–	0.0565	0.0538	0.0675	0.13	0.111	0.166	0.0851	0.0748	0.166	0.101	0.14	0.0478	0.074	0.091	0.0521	–
MGESLFKGPRDYNPISSSICHLTNESDGHTTSLYGIGFGPFIITNKHLFRRNNGTLVVQSLHGVFKVKDTTTLQQHLVDGRDMIIIRMPKDFPPFPQKLKFREPQREERICLVTTNFQTKSMSSMVSDTSCTFPSHDGIFWKHWIQTKDGQCGSPLVSTRDGFIVGIHSASNFTNTNNYFTSVPKNFMELLTNQEAQQWVSGWRLNADSVLWGGHKVFMVKPEEPFQPVKEATQL [G136H]	0.0819	0.134	0.0659	0.0728	0.0657	0.056	0.063	0.0598	0.0623	0.112	0.076	0.0498	0.106	0.0822	0.0847	0.0592	–	0.0701	0.051	–
MGESLFKGPRDYNPISSSICHLTNESDGHTTSLYGIGFGPFIITNKHLFRRNNGTLVVQSLHGVFKVKDTTTLQQHLVDGRDMIIIRMPKDFPPFPQKLKFREPQREERICLVTTNFQTKSMSSMVSDTSCTFPSQDGIFWKHWIQTKDGQCGSPLVSTRDGFIVGIHSASNFTNTNNYFTSVPKNFMELLTNQEAQQWVSGWRLNADSVLWGGHKVFMVKPEEPFQPVKEATQL [G136Q]	0.0938	–	–	–	0.0495	0.0683	0.0556	0.0732	–	0.103	0.072	–	0.0769	0.0769	–	0.0706	–	0.0922	0.0473	–
MGESLFKGPRDYNPISSSICHLTNESDGHTTSLYGIGFGPFIITNKHLFRRNNGTLVVQSLHGVFKVKDTTTLQQHLVDGRDMIIIRMPKDFPPFPQKLKFREPQREERICLVTTNFQTKSMSSMVSDTSCTFPSTDGIFWKHWIQTKDGQCGSPLVSTRDGFIVGIHSASNFTNTNNYFTSVPKNFMELLTNQEAQQWVSGWRLNADSVLWGGHKVFMVKPEEPFQPVKEATQL [G136T]	0.092	0.112	0.0602	0.0571	0.0521	0.0604	0.0651	0.0818	–	0.1	0.0658	0.0534	0.0838	0.0844	0.0831	0.0607	0.0624	0.0728	0.0466	0.0596
MGESLFKGPRDYNPISSSICHLTNESDGHTTSLYGIGFGPFIITNKHLFRRNNGTLVVQSLHGVFKVKDTTTLQQHLVDGRDMIIIRMPKDFPPFPQKLKFREPQREERICLVTTNFQTKSMSSMVSDTSCTFPSGDGIRWKHWIQTKDGQCGSPLVSTRDGFIVGIHSASNFTNTNNYFTSVPKNFMELLTNQEAQQWVSGWRLNADSVLWGGHKVFMVKPEEPFQPVKEATQL [F140R]	0.0288	0.0612	0.0584	0.0514	0.0618	0.0595	0.0588	0.0563	–	0.0623	0.0495	0.0596	0.0635	0.0576	0.061	0.0689	0.0614	0.0845	–	–
